# Test results as given in publication PMC12136788.
# The list shows a part of the results.
# T1: UNK ZnF1-3 (human, UniProt Q9C0B0 31-174)
# T1 sequence: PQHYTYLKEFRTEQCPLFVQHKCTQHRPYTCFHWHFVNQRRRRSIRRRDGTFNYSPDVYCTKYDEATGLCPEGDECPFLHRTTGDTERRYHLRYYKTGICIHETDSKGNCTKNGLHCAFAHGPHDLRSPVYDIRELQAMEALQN
# B1: chr11:50112788:50112789:-_ENSMUSG00000020368_ENSMUST00000020637|mus_mus|FALSE|FALSE (ssRNA)
# RNA: GGGAGUUCUACAGUCCGACGAUCGUCGGAUGUCAUGGACCAGAGCUCCAAACCAAUAGCACUGAAAGGAGUCAUCUUAAAAGGUUCUAGGUCUUCAAAGAAAUCUGGAUUUGGUAUUUUCCUUGGUUUCCAGAUUCCCUGGUACAACAGAGGAUUGAGCAUCA
# B2: chr1:39494447:39494448:+_ENSG00000168653_ENST00000372967|hu_mus|hu_hu_hu_mus_False|18_28 (ssRNA)
# RNA: GGGAGUUCUACAGUCCGACGAUCGCACCGAGCGGCGUUCUUAUAGGGCUGUUCUGCGCUUAGGAACAUAAAGUGCCGGUCCAGGCUGAUGCCCAGCUUUUUCUGUAUGUCCAAGAAAGGCAUGGCCCUGCAGUGCCCUUGUCACAACAGAGGAUUGAGCAUCA
# B3: chr2:202488911:202488912:-_ENSG00000155755_ENST00000286196|hu_mus|hu_hu_hu_mus_False|8_38 (ssRNA)
# RNA: GGGAGUUCUACAGUCCGACGAUCAUUGAAACAUUUUUCAUAAUCUCCAGUAGCAUUUCAGCAUUAUGUAACAAAAGCUCAAUUGUAAAUACAUGUAUAUACAUCUUAUACACUUAAAAACACGAGUAAAAAUGGGAGGCGCCACAACAGAGGAUUGAGCAUCA
# B4: chr7:135612270:135612271:-_ENSG00000105887_ENST00000393085|hu_mus|hu_hu_hu_mus_False|18_78 (ssRNA)
# RNA: GGGAGUUCUACAGUCCGACGAUCGUUUUUUUCUGAGAUGUUAAAUAGUACUUCAGUAACAAAACUUACUUAACCUUUUAUUAAUGCGUGUUGUACCAAAAGCAGACAUUUUAGCUUGCUUCCUUUAAAAAUAUUAACAUUAAGCAACAGAGGAUUGAGCAUCA
# B5: chr11:106643243:106643244:-_ENSMUSG00000020719_ENSMUST00000021062|mus_hu|FALSE|FALSE (ssRNA)
# RNA: GGGAGUUCUACAGUCCGACGAUCGCCUGUUGGUUCAUACCAUUGUGCAUAUUUGGAACAUUACUUCCGUAUUGCUGAGUGCUAUCAUAACCAUUCUGGUAAGUCCCUGUUGGAUUACCAGUCCUAAAACUGGUCUGUAUACCACAACAGAGGAUUGAGCAUCA
# B6: chr1:225611761:225611762:-_ENSG00000143815_ENST00000272163|hu_mus|hu_hu_hu_mus_True|48_48 (ssRNA)
# RNA: GGGAGUUCUACAGUCCGACGAUCCCAGGCCAUCGGCCUCUGACCACUUCACCCUCAACAAACUUCCUACUUGGCAUUUUCUAAAAUUAACCUGCGCGCGCUCCGGCGGGAACUCCAGCCACUCCAGGACAGUCACCAGCAGCCCAACAGAGGAUUGAGCAUCA
# B7: chr7:149068622:149068623:-_ENSMUSG00000025139_ENSMUST00000001950|mus_hu|mus_mus_mus_hu_False|78_108 (ssRNA)
# RNA: GGGAGUUCUACAGUCCGACGAUCGUGCAGGUACUGAGUGUGGCUUGUGGUCUGUCCUGUCUGCAGUUUGUUAAUAUCACGGAACAUACCAUCUAGAACGUUCCAGUCCCGCCUGACACCUUCAUUCCCAAUGGAGAAGAAAUCCAACAGAGGAUUGAGCAUCA
# B8: chr7:131071926:131071927:+_ENSG00000128585_ENST00000352689|hu_hu|FALSE|FALSE (ssRNA)
# RNA: GGGAGUUCUACAGUCCGACGAUCUUUCUUCAAAUUGCAAACAUGAGUUUUCUCAUAUUUUCCAAAUGUGAUAUUCUGAACUAUAGCAGGCCUUUCGAGCUUUAGAAUCAAGUACUGGGGAGGAUAGUUGCUCUCUGAAGACCACAACAGAGGAUUGAGCAUCA
# B9: chr11:77340908:77340909:-_ENSG00000074201_ENST00000525064|hu_hu|hu_hu_hu_mus_True|38_48 (ssRNA)
# RNA: GGGAGUUCUACAGUCCGACGAUCGUUUGGAUCCCUGGACACCGCAUGUAAACUAAUGGUGGGGUAUUCCAGUGAGAAUCCUAAUCCAGAGCCAUCUAACCAAGACAGGCGGCUCUCCGCGAUGUAAAGCGUGCCGGUGCCGAGCAACAGAGGAUUGAGCAUCA
# B10: chr5:128440902:128440903:+_ENSG00000066583_ENST00000173527|hu_mus|hu_hu_hu_mus_True|38_58 (ssRNA)
# RNA: GGGAGUUCUACAGUCCGACGAUCUUGAACGGUGCUGCCAAGUCCUUUGGGGUAUUGUUCCGUUAUGAUAACUGGAAUUCCUAAAAUCCGAGCUCCUUGCAACAAUCUCUGUCCCACACUAAUGAUGUCCCCAAAGUAUUUGAUCAACAGAGGAUUGAGCAUCA
# B11: chr16:94664741:94664742:+_ENSMUSG00000040785_ENSMUST00000117648|mus_hu|mus_mus_mus_hu_False|88_108 (ssRNA)
# RNA: GGGAGUUCUACAGUCCGACGAUCUGGCAUGGAUCUUGGUAGCUGAUACUCAGAAGAAAGGCUGGCCAAGGGUGUAUAUAUGCUGGUGUACUGGGGCAAACCUGGUAACACGUUUAUGUAUGCUGGCGGUGUCUGGGUGAUAUCCAACAGAGGAUUGAGCAUCA
# B12: chr11:87793471:87793472:-_ENSMUSG00000020483_ENSMUST00000020775|mus_mus|mus_mus_mus_hu_False|28_48 (ssRNA)
# RNA: GGGAGUUCUACAGUCCGACGAUCUGGACUUGAAAAUAAAAGAAUAAGCUGGAUCCCCCACCCCCCCACAUUGUCAACCCUACACGAGUUCUGAAUGGGCGACUCAUGAAUCAGCAGAGCUCAAACGGCAAUGACCACCCCACCCAACAGAGGAUUGAGCAUCA
# B13: chrX:140365796:140365797:-_ENSMUSG00000031285_ENSMUST00000033642|mus_mus|mus_mus_mus_hu_False|58_108 (ssRNA)
# RNA: GGGAGUUCUACAGUCCGACGAUCCUUCUCAUUACUUAGUGCCUGCAAGGUUCUGGUUCGGUAGAAGCUACAGUGGGCACUAUGAGUGGGGCUAGGCAACCCAUUCAUCCGGGAGCCUCGCAUGUUCCUGGAUGUCUUAUCUCUCAACAGAGGAUUGAGCAUCA
# B14: chr2:198267338:198267339:-_ENSG00000115524_ENST00000335508|hu_mus|FALSE|FALSE (ssRNA)
# RNA: GGGAGUUCUACAGUCCGACGAUCAAUGAUUUCAACCAAACUUCUGAGAUGUGGCAAGAUAGCACAGCCCAUGAGAAUGGCUAUCUGUUGUACAAUCUUAAUACCAGUGUGCCUCGCUUGCCAAGACUUCUUGCUUUUGCACACCAACAGAGGAUUGAGCAUCA
# Target: T1, UNK ZnF1-3
# Experiment: nsRBNS (natural sequence RNA bind-n-seq); RBNS binding buffer (assumed for nsRBNS): 25 mM Tris pH 7.5, 150 mM KCl, 3 mM MgCl2, 0.01% Triton X-100, 500 ug/ml BSA, 20 U/ml SUPERase-In, 4 C; UNK is unkempt and MSI1 is Musashi-1; names of the RNAs are library labels; protein concentration not given here; high values mean tight binding
row,Binder,binding signal
1,B1,0.688 enrichment R
2,B2,0.733 enrichment R
3,B3,1.08 enrichment R
4,B4,0.492 enrichment R
5,B5,0.516 enrichment R
6,B6,1.62 enrichment R
7,B7,0.883 enrichment R
8,B8,1.09 enrichment R
9,B9,0.845 enrichment R
10,B10,0.983 enrichment R
11,B11,1.14 enrichment R
12,B12,1.79 enrichment R
13,B13,0.461 enrichment R
14,B14,0.444 enrichment R
